Results reported in the supplement of paper PMC9446081.
The campaign covered roughly 39,000 compounds. About 220 (0.56%) showed activity. The list shows a part of the results.

system: Escherichia coli K-12 BW25113; test: relative growth (OD600 normalised to plate interquartile mean) (fraction); higher = less growth inhibition, active = 0.2 or less; conditions: 50 µM; LB; incubation time: overnight (16-24 h)
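Also: static incubation at 37 °C against the wild-type strain, values averaged over two biological replicates.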

Structure (SMILES) | relative growth
C[C@@H]1CCCCO[C@H](CN(C)Cc2ccc(C(F)(F)F)cc2)[C@@H](C)CN([C@H](C)CO)C(=O)c2cc(NC(=O)NC3CCCCC3)ccc2O1 | inactive: 1.02
COc1ccc(NC(=O)Nc2ccc3c(c2)[C@H]2C[C@H](CC(=O)NCC(F)(F)F)O[C@@H](CO)[C@H]2O3)cc1 | inactive: 1.04
O=C(N[C@H]1CC[C@H](CC(=O)N2CCOCC2)O[C@@H]1CO)c1ccc2c(c1)OCO2 | inactive: 0.982
COc1ccc2c3c(n(c2c1)C)[C@H](CO)N(CC1CCOCC1)C[C@]13CN(C1)C(=O)Cc1cccnc1 | inactive: 1.02
Cc1ccc(S(=O)(=O)N(C)C[C@@H]2Oc3ccc(NC(=O)Nc4ccc(C(F)(F)F)cc4)cc3CC(=O)N([C@H](C)CO)C[C@@H]2C)cc1 | inactive: 1.03
C[C@@H]1CN([C@H](C)CO)C(=O)c2cc(NC(=O)NC3CCCCC3)ccc2O[C@@H]1CN(C)C(=O)Nc1cccc2ccccc12 | inactive: 0.925
C[C@H]1CN([C@@H](C)CO)C(=O)c2cc(NS(C)(=O)=O)ccc2O[C@@H]1CN(C)Cc1ccc(C(=O)Nc2ccccc2N)cc1 | inactive: 1
COc1ccc(NC(=O)Nc2ccc3c(c2)C(=O)N([C@H](C)CO)C[C@H](C)[C@@H](CN(C)CC2CC2)OCCCC[C@@H](C)O3)cc1 | inactive: 0.978
C[C@@H]1CN([C@@H](C)CO)C(=O)c2cc(NC(=O)Nc3ccccc3)ccc2O[C@@H](C)C/C=C\CO[C@H]1CN(C)S(=O)(=O)c1ccc(F)cc1 | inactive: 1.02
Cc1ccc(S(=O)(=O)Nc2ccc3c(c2)C(=O)N([C@@H](C)CO)C[C@H](C)[C@H](CN(C)S(=O)(=O)c2ccccc2)O3)cc1 | inactive: 1.04
Cc1ccc(C)c(S(=O)(=O)N2[C@@H]3CC[C@@H](C3)[C@H]2c2nc3cccc(OCc4ccc(F)cc4)c3[nH]2)c1 | inactive: 1.01
COc1ccc(S(=O)(=O)N(C)C[C@H]2Oc3c(NS(=O)(=O)c4cn(C)cn4)cccc3C(=O)N([C@@H](C)CO)C[C@@H]2C)cc1 | inactive: 0.997
COCC(=O)N1C[C@H](C)[C@@H](OC)CN(C)C(=O)c2cc(NC(=O)c3ccc(F)cc3)ccc2OC[C@@H]1C | inactive: 1
COCCNC(=O)c1cn(C)nc1OC | inactive: 1.01
C[C@H](CO)N1C[C@H](C)[C@H](CN(C)S(=O)(=O)c2ccc(Cl)cc2)Oc2ccc(NC(=O)C3CC3)cc2CC1=O | inactive: 1
COc1ccccc1-c1ccc2c(c1)O[C@H](CN(C)C(=O)c1cccnc1)[C@@H](C)CN([C@H](C)CO)S2(=O)=O | inactive: 0.991
C[C@@H]1CCCCO[C@H](CN(C)Cc2ccncc2)[C@@H](C)CN([C@@H](C)CO)C(=O)c2cc(NC(=O)Nc3ccccc3)ccc2O1 | inactive: 1.02
C[C@H](CO)N1C[C@H](C)[C@H](CN(C)S(=O)(=O)c2ccc(F)cc2)Oc2cc(C3=CCCC3)ccc2S1(=O)=O | inactive: 1.02
C[C@H](CO)N1C[C@H](C)[C@@H](CN(C)C(=O)[C@H](C)c2ccccc2)OCc2ccccc2-c2c(n(C)c3ccccc23)C1=O | inactive: 1.02

Structure (SMILES) | relative growth
C[C@H]1CN([C@@H](C)CO)C(=O)c2cc(NC(=O)Nc3cccc4ccccc34)ccc2O[C@H]1CN(C)C(=O)Nc1ccc(F)cc1 | inactive: 0.931
C[C@H](CO)N1C[C@H](C)[C@@H](CN(C)Cc2ccc(Oc3ccccc3)cc2)Oc2ccc(NS(=O)(=O)c3ccc(Cl)cc3)cc2C1=O | inactive: 0.976
COc1cccc(S(=O)(=O)N(C)C[C@H]2Oc3ncc(-c4cccc(C(=O)N(C)C)c4)cc3C(=O)N([C@@H](C)CO)C[C@H]2C)c1 | inactive: 0.979
C[N+](C)(C)CCCC[C@@H]1NC(=O)[C@H]2C[C@@H](C(=O)NCCCCCCN)[C@@H](c3ccc(O)cc3)N2C1=O | inactive: 0.947
Cc1nc(-c2ccccc2)oc1CN | inactive: 0.998
O=C(N[C@@H](c1ccccc1)c1ccc2ccccc2n1)C1CCN(Cc2cccc(C(F)(F)F)c2)CC1 | inactive: 1.02
COc1ccc(NC(=O)Nc2ccc3c(c2)C(=O)N([C@@H](C)CO)C[C@H](C)[C@H](CN(C)C(=O)CCC(F)(F)F)OCCCC[C@@H](C)O3)cc1 | inactive: 0.991
C[C@@H]1CN([C@@H](C)CO)C(=O)c2cc(NS(C)(=O)=O)ccc2O[C@H]1CN(C)S(=O)(=O)c1ccc(Cl)cc1 | inactive: 0.992
C[C@H](CO)N1C[C@H](C)[C@H](CN(C)C(=O)Nc2ccc3c(c2)OCO3)Oc2ccc(N(C)C)cc2CC1=O | inactive: 0.989
NC(=S)N[C@H]1C[C@@H]2C=C[C@H]1C2 | inactive: 1
C[C@H]1CN([C@@H](C)CO)C(=O)c2cccc(NC(=O)c3cnccn3)c2O[C@@H]1CN(C)S(C)(=O)=O | inactive: 0.932
Cc1ccc(S(=O)(=O)Nc2ccc3c(c2)C(=O)N([C@H](C)CO)C[C@H](C)[C@@H](CN(C)C(=O)Nc2ccc(F)cc2)OCCCC[C@@H](C)O3)cc1 | inactive: 1.02
CC12C=CC(=O)C=C1CCC1C3CC(O)C(O)(C(=O)CO)C3(C)CC(O)C12F (stereo not drawn) | inactive: 1.04
C[C@@H]1CCCCO[C@H](CN(C)CC2CCCCC2)[C@H](C)CN([C@@H](C)CO)C(=O)c2cc(NC(=O)Nc3ccc4c(c3)OCO4)ccc2O1 | inactive: 0.961
COc1ccc(C(=O)c2ccccc2O)c(O)c1 | inactive: 0.932
C[C@H](CO)N1C[C@H](C)[C@@H](CN(C)Cc2ccc(-c3ccccc3)cc2)Oc2c(NC(=O)Nc3ccc(C(F)(F)F)cc3)cccc2C1=O | inactive: 0.986
C[C@@H]1CN([C@@H](C)CO)C(=O)c2cc(NS(C)(=O)=O)ccc2O[C@@H](C)CCCCO[C@@H]1CN(C)S(=O)(=O)c1ccc(F)cc1 | inactive: 1.01
C[C@H](CO)N1C[C@H](C)[C@@H](CN(C)Cc2ccc(Cl)c(Cl)c2)Oc2c(NC(=O)c3nc4ccccc4s3)cccc2C1=O | inactive: 1.03
COCC(=O)N1C[C@@H]2OCCN(CCN3CCCC3)[C@H]2C1 | inactive: 0.982
